# Source: the supplement of paper PMC11417369
# ± gives the standard deviation of the averaged measurements. This is one part of the list.
# Test system: PfAP2-G AP2 domain (GST-tagged)
# Assay: gcPBM binding intensity (ln(normalized median fluorescence intensity)); higher = stronger DNA binding
# Outline: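 After 1 h on an Agilent 4 × 180k array of primer-extended double-stranded 36-bp intergenic genomic probes and negative controls, bound GST-tagged P. falciparum DNA-binding domains were detected with Alexa488 anti-GST antibody and scanned at 488 nm. The domains had been expressed in E. coli, and binding took place in 1× PBS with 1% milk, 0.2 mg/ml BSA, 0.5% salmon testes DNA and 0.03% Triton X-100. Binding intensity is the highest Masliner-normalised natural-log median intensity across replicate spots of either probe orientation.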
row,Sequence,gcPBM binding intensity (ln)
1,TATATGTATTTATATACACACATATTCTTTTGACAC [CACACA_site1206],10.2 ± 0.26
2,TATATATATATATGTGCATGTTCCCCATGCTTCCAT [TGCATGCA_site366],10.3 ± 0.3
3,AAAATTATAATAATATGTACTTAAAAAATTTATATA [XGTACX_site632],11.2 ± 0.91
4,TTCTTCAAGGAAAACACATGCGCATTTTCACCAATT [TGCATGCA_site11],10.04 ± 0.049
5,ATATATATATATATATGTACATATGTATATTTTTTT [XGTACX_site1299],10.9 ± 0.44
6,CATACATACAGATATACACACATATATAATAATATA [CACACA_site5477],9.89 ± 0.12
7,CATATTTGCACTTTCACACATAAATATATAACTATA [CACACA_site6016],10.3 ± 0.22
8,TATATATATATATACACACACACACCCATATATATA [CACACA_site2538],10.1 ± 0.2
9,CTGTATTCATAATTCACACAAATGGTTTATATGAAT [CACACA_site4315],10 ± 0.15
10,TTTAAACAAGGATCCACACACCCCAAAAAAAAAAGA [CACACA_site680],10.5 ± 0.47
11,TTTTTATTTTTGTAGTGTACTTTATTTTTTTTGTTT [XGTACX_site8887],11.6 ± 0.91
12,TAGATTCTTGAATAAGTGCAAAATATAATATTTATT,9.93 ± 0.16
13,AAAAATAAAATAAAATAAAATAAACATACCATATGT [CACACA_negctrl_site594],9.935 ± 0.021
14,CAAAAGTATAATAATACACACACTTTAAAAGTTAAA [CACACA_site3343],10.1 ± 0.13
15,TATATATGTTCAATATGTACATATATATAAGTGTAT [XGTACX_site5157],10.9 ± 0.52
16,AAGAAATATTTATACACACACACAAACATATATATA [CACACA_site1912],9.98 ± 0.16
17,ATATTATTGTAGAAATGTACATATATATATATATAT [XGTACX_site1882],11 ± 0.49
18,TTACAAATGGTTTACACACACATAATTGTATCAATT [CACACA_site4167],10.1 ± 0.14
19,TAATATATGAGAAATTGTACAGAAAGGAATATGCTT [XGTACX_site5300],10.7 ± 0.35
20,TATATATGGTATAATTGTACTAACGCCAACTATACC [XGTACX_site5853],10.9 ± 0.53
21,TAGCTTTTGCCTTTTTTTAAAAAAAAATAAATAAAT [TGCATGCA_negctrl_site242],9.81 ± 0.099
22,TATATATATTTATACACACAAACATAATACTACTTA [CACACA_site2022],10.3 ± 0.22
23,TTTTTTTTTATGTGCACACAAAAGATGCTTATATTT [CACACA_site2348],10.7 ± 0.43

row,Sequence,gcPBM binding intensity (ln)
1,TGCATATACATATGTAGTACAATAATTTGAAAAAAA [XGTACX_site5239],11.5 ± 1
2,TTTCCATATATAGAACGTACAAAGATCTTTGTTACT [XGTACX_site8972],11.1 ± 0.61
3,ATACATATATATATGTGTACATATTATATATACATA [XGTACX_site8420],11.3 ± 0.83
4,TTTTGTATTTATGGATGTACATAATATGTTTTAAAC [XGTACX_site3278],11.3 ± 0.69
5,TATGTATGTATTAATGCGCACACAAAAAATAACAAT [CACACA_site8551],10.8 ± 0.42
6,AAAAATTAAATATAAAGTACAAAATTAAAATCTTAA [XGTACX_site931],10.9 ± 0.62
7,TTATTATTTTATAACACACACATATAGATTATAGCT [CACACA_site6787],9.935 ± 0.064
8,ATATATATATATATAAAGTGAAGTATGAGGGAAATA [XGTACX_negctrl_site497],10.1 ± 0.27
9,ATTTTCTTTTCCATAGTGCAATATAATTATCCATCA [GTGCAC_site9547],10.2 ± 0.11
10,TTTCGTAACTATTTGTGTACATATATATATATATAT [XGTACX_site2920],11.4 ± 0.83
11,ATAAATATATGAAATATACACACTTCTTTGGTATTA [CACACA_site456],9.68 ± 0.18
12,TATTATATATTAAATGCATGTAAAAATAATATTAAA [TGCATGCA_site643],9.94 ± 0.25
13,ATATTATAATAAATGTGTACATATTGTAGAAATATT [XGTACX_site8101],11.4 ± 0.83
14,AATTATTTACCCTATACACACAAAACACGCTAAAAA [CACACA_site1211],10.3 ± 0.28
15,AAAGAGAGTATCTAATGTACGTATGTATGTATATAT [XGTACX_site1780],11.4 ± 0.88
16,ATTTTGTGCGCACACACATGCAAAAAGAAATATGAT [TGCATGCA_site261],10.8 ± 0.46
17,TCTGTAAATACGTGCACACACAAATCACAAATGTGA [CACACA_site330],10.7 ± 0.52
18,TAAATAATTTCACGAATGACAAAGATATAATAAGTT [CACACA_negctrl_site1430],9.93 ± 0.11
19,TAAAGGTGAACAATACGTACATAAGAACTTATGAGG [XGTACX_site4216],11.5 ± 0.91
20,ATCGTGAATAATATCTGTACATATGAACACATATAT [XGTACX_site952],11.1 ± 0.6
21,TATGACCTTAGAAATTGTACAAGAAAAAATGTTACA [XGTACX_site7084],11 ± 0.55
22,ATATAAAATACATGGGTGCAATATATTAAACAAATA [GTGCAC_site9421],10.2 ± 0.11
23,GTTATAAATAAATACACACATACAAAAATATGACGT [CACACA_site1154],10.11 ± 0.071

row,Sequence,gcPBM binding intensity (ln)
1,TCACATACATGAAAATGTACTTTTATAATTCCATAA [XGTACX_site1836],11.1 ± 0.74
2,ATAAATACACACAAGTGTACATACTTCTATAAATAT [XGTACX_site1845],11.3 ± 0.96
3,TTTTTTTTTTTTGGATGTACTTAATGAAAATGTTAC [XGTACX_site8980],11.1 ± 0.94
4,TAAGCACAAGCACAAGCACACATTTATATATATATA [CACACA_site883],10 ± 0.28
5,ATTTTATTTTTTCACACACACATATATATATATATA [CACACA_site3334],10.2 ± 0.3
6,CCCAGGAATATAAAATGTACATAAAAAATACAAATT [XGTACX_site1708],11.2 ± 0.67
7,AGTACATTATAGAATACACACCTATACATTTATATA [CACACA_site6391],10.1 ± 0.028
8,TCTTTGTATATATGTTCATTTGTAATATATATTCAT [TGCATGCA_negctrl_site467],9.7 ± 0.15
9,TATTTGTGAAGAAATTGTACTCATATCTACATTTAT [XGTACX_site2245],11.3 ± 0.84
10,ATAATAATATAAAAATGTACATATATTTATAATTGT [XGTACX_site3429],11.1 ± 0.59
11,ACATAATATTGAAGAAGTACAAATTTTATTTATTAT [XGTACX_site4113],11.2 ± 0.73
12,ACGTTTTTGAGTAGTACACACACAATAAGGATGGAT [CACACA_site9044],11.5 ± 0.97
13,ATGCAAACTAAAAGACGTACAGAAAAGTATCATACT [XGTACX_site8766],11.6 ± 0.87
14,TGATTATTTTATATTTGTACACATATCATATAAAAA [XGTACX_site5868],11.5 ± 1
15,ATGTATGTGTATATATGTACATAATATATATCTTTT [XGTACX_site8666],11.2 ± 0.45
16,AATATAATATATATTAGTACATATATATATATATAT [XGTACX_site870],11.1 ± 0.85
17,CCTCATATTATAGACACACACAAAAAAAATAAAAAA [CACACA_site180],10.1 ± 0.33
18,TCATTATTATATAATTGTACATAATAATTATATCCA [XGTACX_site1801],10.9 ± 0.68
19,GGAACCATCCAAAAAAAAAAAAAAAATAATAATAAT [CACACA_negctrl_site383],9.515 ± 0.092
20,ACATGTACAGAAATTTATATATATATATATATATAT [CACACA_negctrl_site1584],11.1 ± 0.8
21,TCTTCATATATAATTGTACACACAAAAACGACATTG [CACACA_site8645],11.4 ± 0.94
22,TATTATAATTAATATACACACGCTTATATATATATA [CACACA_site75],10 ± 0.13
23,TATAAATAAACATTTACACACTCTTATAATAAATAT [CACACA_site1679],9.82 ± 0.12

row,Sequence,gcPBM binding intensity (ln)
1,ATTATTATGTATTGCCGTACACATATTATCACAGAA [XGTACX_site3740],11.3 ± 0.9
2,ACTGAAAAAAGAAATACACACATTCTGGATCAGATA [CACACA_site7760],9.94 ± 0.057
3,TCATTCTTGTGTTTATGTACACATATTTATATTGTA [XGTACX_site710],11.4 ± 0.88
4,AACTAATAGTATATTACATGCAAAAGTAAAAGTAAA [TGCATGCA_site411],9.945 ± 0.035
5,CTCACAATACTTACATGTACATATTATATATATAAA [XGTACX_site1880],11.4 ± 0.88
6,GTTGAAATAAAATTAGTGCATATATAAATATATATA,9.8 ± 0.17
7,TATATGCAAAATGTCACACATGTGATAAATACATAT [CACACA_site4302],10.1 ± 0.11
8,TTATCATTTTTGGAATGTACTTACATTAAATATTTA [XGTACX_site4034],11.1 ± 0.83
9,ATAATGTATATTATTGCACACATATATAAAATTATG [CACACA_site8280],10.2 ± 0.26
10,TAAATAAATACATACACACACATACCTATATTTATA [CACACA_site7466],10 ± 0.13
11,AATATAAATATAAATATAAATATATATATATATATA [TGCATGCA_negctrl_site603],9.89 ± 0.63
12,TTTTATAAAAACAAAAACAAAGGCACTTTCTAAAGA [XGTACX_negctrl_site130],10.3 ± 0.23
13,TGTATACACATATGTACACACATATAGATGTATATG [CACACA_site7447],11.3 ± 0.6
14,TATGAATTTATCTACAACATTTGAAATAAATTAAAA [CACACA_negctrl_site79],9.81 ± 0.12
15,AAAGACAAAAGGAATTGTACATAATATATAAAATAT [XGTACX_site2923],10.8 ± 0.54
16,AATTTTATTTAAAGTGCATGTAAAATTAAAACTTTT [TGCATGCA_site989],10 ± 0.057
17,ATATAAAATATGAGTAGTACATATTTTCTCATCTTA [XGTACX_site8595],11.3 ± 0.73
18,GGGAAACGATTTAATACACACACGTATTATATATAT [CACACA_site1160],10.1 ± 0.13
19,CACAAAAGTAAGCACGCACACACAACATGAAATAAA [CACACA_site7938],10.4 ± 0.18
20,CATTTTTTGTAAAATCGTACATATACATAAAGTGGT [XGTACX_site3423],11.3 ± 0.84
